The other results are listed elsewhere or left out.

This assay deals with T1, OsWOX13 (Oryza sativa, UniProt Q5QMM3 1-267).
T1 sequence: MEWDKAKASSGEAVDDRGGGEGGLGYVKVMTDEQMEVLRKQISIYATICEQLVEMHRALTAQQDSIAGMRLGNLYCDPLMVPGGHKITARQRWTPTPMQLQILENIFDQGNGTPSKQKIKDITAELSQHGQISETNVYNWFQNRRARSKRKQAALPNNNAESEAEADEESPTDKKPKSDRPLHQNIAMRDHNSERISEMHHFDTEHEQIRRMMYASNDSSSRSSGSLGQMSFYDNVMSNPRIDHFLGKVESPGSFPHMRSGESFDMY
The assay is described as follows: protein-binding microarray (RPBM); PBS, 2% BSA, 51.3 ng/ul salmon testes DNA, 50 uM zinc acetate, 200 nM TF, 25 C, 1 h; high values mean tight binding. The conditions noted are these: protein: recombinant; tags: N-terminal polyhistidine and DsRed monomer fusion (pET32a); label: CyDye5-dUTP incorporated in the synthesized complementary strand; 3' TTTTT single-stranded linker to array surface; dsDNA, one strand shown. In outline:
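The binding signal is fluorescence intensity per array feature (arbitrary units). Readings came from an Axon 4000B scanner after a washed, 2% BSA-blocked, double-stranded custom Agilent array had been incubated for 1 h at 25 °C with 200 nM protein and 50 µM zinc acetate. The protein was a Ni–NTA-purified transcription factor fused N-terminally to polyhistidine and DsRed, expressed in E. coli BL21-CodonPlus.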
As to “CCCATCCAATCATCCCAACAACAACCAGCTGGAAAATGGACGGAGTCACCTAGTGCAG”, the binding signal is 6940 fluorescence intensity (a.u.).
As for “AACATGATAAATTGCTAGTTTCCTACGGACGCTAAACGAGCGGAGTCACCTAGTGCAG”, the binding signal is 23300 fluorescence intensity (a.u.).
Next, “GCGATGGTTATATATCGGTTGATTGTTTGCCATCTCATAGCGGAGTCACCTAGTGCAG”: 6090 fluorescence intensity (a.u.).
In the case of “TTTGCCACTAATTAATCTACTAATGGCTTATGATAGTCATCGGAGTCACCTAGTGCAG”, the binding signal was 10700 fluorescence intensity (a.u.).
The figure for “TTAAGTAGTAATTACTTGCATTGAGAAGACATTTTCAGCTCGGAGTCACCTAGTGCAG” is 3870 fluorescence intensity (a.u.).
The figure for “AGTAGAAAATTTGTTGACAAATTTATAGGTGGTTCCGCTTCGGAGTCACCTAGTGCAG” is 18200 fluorescence intensity (a.u.); for “GAGACGAATTTATTAAGCCTAATTACATATGGGTTACTGTCGGAGTCACCTAGTGCAG” it is 6220 fluorescence intensity (a.u.).
Next, “TCTGATAGGTACATACTAAAATACATATGTTCTGTTTGGACGGAGTCACCTAGTGCAG”: 22700 fluorescence intensity (a.u.).
Take “TGTGATTATGTATAGCTGTTTGCACAGGCTAACAAACAGTCGGAGTCACCTAGTGCAG”: the binding signal is 20600 fluorescence intensity (a.u.).
With “GAGATTGGAAGTTAATATTCAAGGAAGAAGACCACACTAGCGGAGTCACCTAGTGCAG”, the binding signal was 14600 fluorescence intensity (a.u.).
With “TCGAAAATTACTAGTGAATTTCCGGGCGTGACACACGATGCGGAGTCACCTAGTGCAG”, the binding signal was 4070 fluorescence intensity (a.u.).
The figure for “TCTGGATTGAATCCGGGCGTAACCGAATAAGGCCTAAGGGCGGAGTCACCTAGTGCAG” is 11300 fluorescence intensity (a.u.).
Next, “ATGAACGAGCTATTAAATTGTCTATAGATGAATTGGAGCTCGGAGTCACCTAGTGCAG”: 3510 fluorescence intensity (a.u.); “AATCATTTTATTTGACTAATACACGTCAGGATTGAATGAGCGGAGTCACCTAGTGCAG”: 4110 fluorescence intensity (a.u.).
Next, “TTGAATCAATGACTGATCATTGCCCAGACTGCTATTTTCCCGGAGTCACCTAGTGCAG”: 7090 fluorescence intensity (a.u.); “TGCAGTTACTCCAATCAGCCGTCACGTACGGTTTTGAGAGCGGAGTCACCTAGTGCAG”: 8420 fluorescence intensity (a.u.); “CTTTTATAATTTATGTAAATTACTTTTAGACTTTACTAAACGGAGTCACCTAGTGCAG”: 12500 fluorescence intensity (a.u.).
On to “TAGTCTACTTAATAATTATTCAAATTTAATATTTCATAACCGGAGTCACCTAGTGCAG”, for which the binding signal is 5880 fluorescence intensity (a.u.).
With “TGTTAATTAAGGATAGTGTCTGCTACCTTCCAGGTTTCCGCGGAGTCACCTAGTGCAG”, the binding signal was 19200 fluorescence intensity (a.u.).
Take “AATTGTCAATCTTGATCAAATAGAAAATATAAGATGATGACGGAGTCACCTAGTGCAG”: the binding signal was 7200 fluorescence intensity (a.u.).
For “TGGTGAATGGGAAATTGACAAACGACTGCTGAAGATGGGACGGAGTCACCTAGTGCAG”, the binding signal was 26500 fluorescence intensity (a.u.).
The figure for “TCGATGTACCAATCTATCTGTCCATCTAGGTCTCTAAGGACGGAGTCACCTAGTGCAG” is 6620 fluorescence intensity (a.u.).
Consider “TTAACTTGATTTTATAAGTTGGAGGTTCAAGATTTCAGTTCGGAGTCACCTAGTGCAG”, for which the binding signal is 7760 fluorescence intensity (a.u.).
As for “GACGGAGTTGATTTAATCAGTAGTAAGAGGTTGGAGGAGGCGGAGTCACCTAGTGCAG”, the binding signal was 5050 fluorescence intensity (a.u.).
The figure for “AGCTCGTGATTAGCAGATTGCATTTAGTGGGTGGGCTGTCCGGAGTCACCTAGTGCAG” is 46200 fluorescence intensity (a.u.); for “TAATTTAGATTACATATAAAACAAACAGGCCTAACTTGCCCGGAGTCACCTAGTGCAG” it is 7840 fluorescence intensity (a.u.); for “CAAATAATTAACCACATTGCCAATCTGCATTTGCGAAATGCGGAGTCACCTAGTGCAG” it is 30100 fluorescence intensity (a.u.).
As for “AATTATAATAAATGAAATTGCACAAAGGATTATAGTAATCCGGAGTCACCTAGTGCAG”, the binding signal was 3880 fluorescence intensity (a.u.).
Take “AGTTAATTTGTACCAAACTCTTAAGCATGGAGGATTTGACCGGAGTCACCTAGTGCAG”: the binding signal is 23400 fluorescence intensity (a.u.).
As for “ATTGTGAATTGATGGATCCTCATATTCTTACTATTTTGTTCGGAGTCACCTAGTGCAG”, the binding signal was 22500 fluorescence intensity (a.u.).
As for “AGTTATGCTTGATAATTGATATCCACAGCCACAAAATAAACGGAGTCACCTAGTGCAG”, the binding signal was 7250 fluorescence intensity (a.u.).
Next, “CAAGATTAAGATTAAACCAGGAGAGACCACCCGATCGAGTCGGAGTCACCTAGTGCAG”: 5280 fluorescence intensity (a.u.); “AATTATAATCACTTCTCTGTCGAGATCCCCTCCAACATACCGGAGTCACCTAGTGCAG”: 3330 fluorescence intensity (a.u.).
Next, “ATTTGATTGCACAGAACTGATTGTTGTGCAGACATTACCTCGGAGTCACCTAGTGCAG”: 37500 fluorescence intensity (a.u.); “GCAGTGATTAATGGAACAGAAGTCATCCATCCATCCACTGCGGAGTCACCTAGTGCAG”: 48600 fluorescence intensity (a.u.).
The figure for “CTGAAATTATTTTACTGCACCTGGTAACCACGCACAGTAACGGAGTCACCTAGTGCAG” is 3200 fluorescence intensity (a.u.); for “CCCTTACTGATTGGACGGTCCCGCGCATAAGCATGCGCACCGGAGTCACCTAGTGCAG” it is 27800 fluorescence intensity (a.u.).
In the case of “TTTGATGGGCAAAGATTTATGACTCGTGGGCTCATACCAGCGGAGTCACCTAGTGCAG”, the binding signal is 19900 fluorescence intensity (a.u.).
The figure for “GAATCAGATTGGACATATAATCGAGGGAGTCCAACCAGACCGGAGTCACCTAGTGCAG” is 12500 fluorescence intensity (a.u.); for “TGGAATTGACTTGTTACTAAAATAAATAAATGATCAATAGCGGAGTCACCTAGTGCAG” it is 11400 fluorescence intensity (a.u.); for “CTTAATTAATCATACGCTAATAAGTCACTCCGTTTTACGTCGGAGTCACCTAGTGCAG” it is 26000 fluorescence intensity (a.u.).
On to “ACTTAATTGCAAAGCAAAGTAACGGATGAGATGCACTAATCGGAGTCACCTAGTGCAG”, for which the binding signal is 24700 fluorescence intensity (a.u.).

Values taken from article PMC7819943, “Rice protein-binding microarrays: a tool to detect cis-acting elements near promoter regions in rice”.
